The other results are listed elsewhere or left out.
Tests used:
[1] = test system: HSkMC (human skeletal muscle cells); assay: cytotoxicity call (relative viability < 0.9); conditions: 10 µM
[2] = test system: HepG2; assay: cytotoxicity call (relative viability < 0.9); conditions: 10 µM
[3] = test system: S. aureus RN4220; assay: growth inhibition call (relative growth <= 0.2); conditions: 50 µM

C[C@@H]1CCCCO[C@@H](CN(C)Cc2ccc(Cl)c(Cl)c2)[C@@H](C)CN([C@H](C)CO)C(=O)c2cc(NC(=O)c3ccccc3)ccc2O1
inactive: cytotoxicity call [1] | cytotoxicity call [2] | growth inhibition call [3]

C[C@H]1CN([C@@H](C)CO)C(=O)Cc2cc(NC(=O)C3CC3)ccc2O[C@H]1CN(C)S(=O)(=O)c1ccccc1
inactive: cytotoxicity call [1] | cytotoxicity call [2] | growth inhibition call [3]

CCCCC[C@H](O)/C=C/[C@@H]1[C@H]2C/C(=C/CCCC(=O)O)O[C@@H]2C[C@H]1O
inactive: cytotoxicity call [1] | cytotoxicity call [2] | growth inhibition call [3]

C=CCOC(=O)[C@H]1[C@@H]2C(=O)O[C@@H](c3ccccc3)[C@@H](c3ccccc3)N2[C@@H](c2ccc(OCCOC(=O)NCCCCCC(=O)NO)cc2)[C@@]12C(=O)Nc1ccc(I)cc12
inactive: cytotoxicity call [1] | cytotoxicity call [2] | growth inhibition call [3]

Cc1noc(C)c1S(=O)(=O)Nc1ccc2c(c1)C(=O)N([C@H](C)CO)C[C@@H](C)[C@@H](CN(C)C(=O)Nc1ccccc1)OCCCC[C@@H](C)O2
inactive: cytotoxicity call [1] | cytotoxicity call [2] | growth inhibition call [3]

C[C@H](CO)N1C[C@H](C)[C@@H](CN(C)S(=O)(=O)c2cn(C)cn2)OCCCC[C@H](C)Oc2ccc(NC(=O)c3ccncc3)cc2C1=O
inactive: cytotoxicity call [1] | cytotoxicity call [2] | growth inhibition call [3]

CS(=O)(=O)Nc1ccc2c(c1)[C@H]1C[C@@H](CC(=O)NCC3CC3)O[C@@H](CO)[C@H]1O2
inactive: cytotoxicity call [1] | cytotoxicity call [2] | growth inhibition call [3]

C[C@H](CO)N1C[C@H](C)[C@H](CN(C)C(=O)Nc2cccc3ccccc23)Oc2ccc(NC(=O)Nc3ccc(C(F)(F)F)cc3)cc2CC1=O
inactive: cytotoxicity call [1] | cytotoxicity call [2] | growth inhibition call [3]

From the antibiotic and cytotoxicity screens of Wong et al. (2023)
